From PubChem BioAssay AID588342 (National Center for Advancing Translational Sciences (NCATS), 2011)
The campaign covered roughly 360,000 compounds. About 25,000 (6.9%) were called active. Inconclusive results, whose numbers are uncertain, are shown with a selection of clear calls. Calls follow the shape of the dose curve; as a rule, active = well fitted inhibition curve with a large enough effect; inconclusive = small, poorly fitted or top-dose-only effect; inactive = flat fitted curve, though single readings scatter. Potencies beside an inconclusive call are fits to weak or partial responses and may not hold up.
Also: nearly all actives have a fitted effect of over 55% in size.
Potency is read from the fitted curve at half-maximal effect; tags tell the direction and shape of the fitted curve.

What follows are compounds tested against Luciferin 4-monooxygenase (Photinus pyralis) (UniProt P08659) (assay: qHTS profiling assay for firefly luciferase inhibitor/activator using purifed enzyme and Km concentrations of substrates (counterscreen for miR-21 project)). Settings: purified FLuc, luminescence inhibition; series mostly up to 57.5 µM.
Sequence of UniProt P08659 (P08659 whole entry, looked up): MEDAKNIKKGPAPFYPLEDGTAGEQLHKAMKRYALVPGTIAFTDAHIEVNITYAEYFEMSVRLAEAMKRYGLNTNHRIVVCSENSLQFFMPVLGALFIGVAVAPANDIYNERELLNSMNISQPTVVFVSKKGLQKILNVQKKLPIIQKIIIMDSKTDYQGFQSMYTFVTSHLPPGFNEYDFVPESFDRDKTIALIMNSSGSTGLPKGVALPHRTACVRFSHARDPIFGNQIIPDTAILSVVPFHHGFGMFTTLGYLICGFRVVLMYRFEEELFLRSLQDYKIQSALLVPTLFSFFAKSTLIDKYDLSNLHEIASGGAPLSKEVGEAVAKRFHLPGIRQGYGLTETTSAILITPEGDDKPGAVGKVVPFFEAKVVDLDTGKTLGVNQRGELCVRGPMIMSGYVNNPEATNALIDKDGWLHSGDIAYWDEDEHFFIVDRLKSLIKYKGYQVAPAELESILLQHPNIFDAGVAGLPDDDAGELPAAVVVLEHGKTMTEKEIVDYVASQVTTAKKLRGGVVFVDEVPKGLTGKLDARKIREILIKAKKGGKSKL
Summary of the method: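 Biochemical qHTS of compounds, final roughly 60 µM downward over six points, against 10 nM purified firefly luciferase using Km concentrations of substrates (10 uM D-luciferin, 10 uM ATP) in Tris acetate pH 7.5 buffer; luminescence output.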
In the case of `CNc1nc(-c2ccccc2)[n+](-c2ccc(C)cc2)s1`, the Potency is reported as active: 6.75 µM.
For `CCOC(Cn1c(SCC(=O)Nc2cc(C)on2)nc2ccccc2c1=O)OCC`, the Potency was “inactive”.
In the case of `COc1ccc(-c2ccc(C)cc2)cc1[C@H]1[C@@H]2C=CCC[C@@]2(C)C(=O)N1Cc1ccccc1`, the Potency is reported as inconclusive: 37.9 µM [inhibitor, single point].
For `COc1cccc(CNC(=O)c2c(C)nn(-c3ccc(F)cc3)c2-n2cccc2)c1`, the Potency was “inactive”.
`Cc1ccc(NC(=O)Nc2nnc(SCC(=O)N(C(C)C)C(C)C)s2)cc1` was tested, and the Potency was inconclusive: 7.57 µM [inhibitor, partial curve, poor fit].
With `CCc1ccccc1NC(=O)CN(C)C(=O)CSc1nnc(Nc2cccc(C)c2)s1` the Potency was active: 12 µM.
In the case of `CCOC(=O)c1sc2ccccc2c1S(=O)(=O)Nc1ccc(OC)c(Cl)c1`, the Potency is reported as inconclusive: 13.5 µM [inhibitor, partial curve, poor fit].
`Cc1ccccc1NC(=O)NCCc1ccc(Cl)cc1` was tested, and the Potency was “inactive”.
For `CN(C)c1ccc(NC(=O)CSc2nnc(-c3cnccn3)n2C)cc1`, the Potency was inconclusive: 19 µM [inhibitor, single point].
With `Cc1ccc(NC(=O)c2cccc3c(=O)c4c([nH]c23)CCCC4)c(C)c1` the Potency was inconclusive: 26.9 µM [inhibitor, single point].
`CC(=O)Oc1ccc(C(=O)NC(C)CCc2ccccc2)cc1` (stereo not drawn) was tested, and the Potency was “inactive”.
`CCN(CC)S(=O)(=O)c1cccc(-c2nnc(SCCCC(=O)c3ccccc3)o2)c1` was tested, and the Potency was inconclusive: 30.1 µM [inhibitor, partial curve, poor fit].
With `Cc1cc2cc(CNC(=O)c3cccc([N+](=O)[O-])c3)ccc2n1C` the Potency was inconclusive: 23.9 µM [inhibitor, partial curve, poor fit].
With `O=C(Cc1ccccc1[N+](=O)[O-])Nc1nccs1` the Potency was “inactive”.
In the case of `CNC(=O)c1ccc(-c2ccc(Cl)c(Cl)c2)s1`, the Potency is reported as inconclusive: 13.5 µM [inhibitor, partial curve].
In the case of `CCN(CC)c1ccc(C(=O)N2CCc3c([nH]c4ccccc34)C2c2ccc(F)cc2)cc1` (stereo not drawn), the Potency is reported as “inactive”.
With `O=C(COc1ccc([N+](=O)[O-])cc1)Nc1nc(-c2ccccn2)cs1` the Potency was inconclusive: 21.3 µM [inhibitor, single point].
With `Cc1cccc(Cn2ccc(NC(=O)c3ccc4c(c3)OCO4)n2)c1` the Potency was active: 16.9 µM.
In the case of `Cc1ccc(-n2[nH]c(C)c(/C=N/c3cccc(C)n3)c2=O)cc1`, the Potency is reported as inconclusive: 23.9 µM [inhibitor, partial curve, poor fit].
In the case of `O=C(CN1CCOCC1)Nc1ccc([N+](=O)[O-])cc1`, the Potency is reported as “inactive”.
In the case of `O=C(CSCc1ccccc1)N1CCN(c2ccccc2)CC1`, the Potency is reported as active: 23.9 µM.
With `COc1ccc(OC)c(CCNC(=O)c2c(C)oc3ncn(CC(C)C)c(=O)c23)c1` the Potency was “inactive”.
For `COc1ccc2[nH]c3c(=O)n4c(nc3c2c1)SCCC4`, the Potency was inconclusive: 37.9 µM [inhibitor, partial curve, poor fit].
In the case of `CCOC(=O)Cn1c(=O)oc2cc(S(=O)(=O)N3CCN(c4cccc(Cl)c4)CC3)ccc21`, the Potency is reported as “inactive”.
In the case of `O=C(Oc1ccc(C(=S)N2CCOCC2)cc1)c1cccc(Cl)c1`, the Potency is reported as inconclusive: 23.9 µM [inhibitor, single point].
`Cc1cc(C(=O)OCCN2C(=O)c3ccccc3C2=O)c2ccccc2n1` was tested, and the Potency was inconclusive: 23.9 µM [inhibitor, partial curve, poor fit].
In the case of `Cc1ccccc1-c1n[nH]c(=S)o1`, the Potency is reported as “inactive”.
`O=C(O)CCn1c(SCc2ccccc2)nc2ccccc21` was tested, and the Potency was inconclusive: 19 µM [inhibitor, partial curve].
`O=C(NCCNC(=O)c1ccc(Cl)cc1Cl)c1ccccn1` was tested, and the Potency was “inactive”.
With `CCc1ccc2oc(-c3ccc(C)c(NC(=O)c4cc([N+](=O)[O-])ccc4N4CCOCC4)c3)nc2c1` the Potency was active: 1.69 µM.
`NS(=O)(=O)c1cccc(NC(=O)COC(=O)CCCc2c[nH]c3ccccc23)c1` was tested, and the Potency was inconclusive: 37.9 µM [inhibitor, partial curve, poor fit].
With `NNC(=O)c1cccc(COc2cccc(Br)c2)c1` the Potency was inconclusive: 16.9 µM [inhibitor, partial curve].
With `CCCCc1ccc(-n2nc3ccc(NC(=O)c4cc5ccccc5o4)cc3n2)cc1` the Potency was “inactive”.
In the case of `COC(=O)c1ccc(-c2ccc(/C=N/NC(=O)Cc3nnc(N)s3)o2)cc1`, the Potency is reported as inconclusive: 21.3 µM [inhibitor, partial curve, poor fit].
With `Cc1ccc(C(CCNC(C)c2cccs2)c2ccco2)cc1` (stereo not drawn) the Potency was “inactive”.
In the case of `CS(=O)(=O)Oc1ccc(Br)cc1/C=C1/N=C(c2ccco2)OC1=O`, the Potency is reported as inconclusive: 0.757 µM [inhibitor, partial curve, poor fit].
In the case of `Cc1sc2nc(-c3cccnc3)[nH]c(=O)c2c1-c1ccccc1`, the Potency is reported as inconclusive: 26.9 µM [inhibitor, partial curve, poor fit].
With `CCCc1ccc(OCc2nc(-c3ccc(NC(=O)c4ccco4)cc3)no2)cc1` the Potency was active: 13.5 µM.
In the case of `COC(=O)CN1C(=O)CSc2ccc(S(=O)(=O)Nc3ccc(F)c(Cl)c3)cc21`, the Potency is reported as inconclusive: 37.9 µM [inhibitor, partial curve, poor fit].
For `Cc1ccc(OCC(=O)N(C)CC(=O)Nc2cccc(F)c2)cc1`, the Potency was inconclusive: 37.9 µM [inhibitor, partial curve, poor fit].
With `Cc1ccc2c(c1C)NC(=O)CC(c1ccccc1O)=N2` the Potency was inconclusive: 2.39 µM [inhibitor, partial curve].
In the case of `COc1cnn(-c2ccc(C)cc2)c(=O)c1SCc1ccccc1`, the Potency is reported as inconclusive: 21.3 µM [inhibitor, partial curve].
`O=C(COC(=O)c1ccco1)Nc1ccccc1` was tested, and the Potency was inconclusive: 15.1 µM [inhibitor, partial curve, poor fit].
With `O=C(O)/C=C/c1cn(Cc2ccccc2)nc1-c1ccc(Cl)cc1` the Potency was inconclusive: 37.9 µM [inhibitor, single point].
`CCn1c(SCC(=O)Nc2nc(-c3ccccc3)cs2)nnc1-c1ccccc1O` was tested, and the Potency was inconclusive: 30.1 µM [inhibitor, single point].
With `C/C(=N\NC(=O)c1cccs1)c1ccc2c(c1)OCO2` the Potency was inconclusive: 13.5 µM [inhibitor, partial curve].
With `CN1CCN(S(=O)(=O)c2cccc(C(=O)N(Cc3nnc(-c4ccccc4Cl)o3)C3CC3)c2)CC1` the Potency was inconclusive: 26.9 µM [inhibitor, partial curve, poor fit].
With `Cc1occc1C(=O)N/N=C/c1c(O)ccc2ccccc12` the Potency was inconclusive: 23.9 µM [inhibitor, partial curve].
In the case of `COC(=O)c1sccc1S(=O)(=O)N(CC(=O)Nc1cc(C)ccc1C)c1ccc(C)c(C)c1`, the Potency is reported as “inactive”.
With `COc1ccc(OC)c(NC(=O)c2ccc(Cl)cc2)c1` the Potency was inconclusive: 37.9 µM [inhibitor, partial curve, poor fit].
`CN(Cc1nc(-c2ccccc2)no1)C1CCOCC1` was tested, and the Potency was active: 16.9 µM.
In the case of `CC(C)OC(=O)c1ccc(NC(=O)C2C3CC4OC(=O)C2C4C3)cc1` (stereo not drawn), the Potency is reported as active: 21.3 µM.
`Clc1ccc(Cc2ccc(SCc3ccccc3)nn2)c(Cl)c1` was tested, and the Potency was “inactive”.
For `O=C(CNCc1ccccc1)NC1C2CC3CC(C2)CC1C3` (stereo not drawn), the Potency was inconclusive: 37.9 µM [inhibitor, partial curve, poor fit].
`CCOC(=O)CNC(=O)c1cc2c(=O)oc3ccccc3c2s1` was tested, and the Potency was “inactive”.
In the case of `CCOc1ccc(N2CC(NC(=O)c3ccc4c(c3)OCO4)CC2=O)cc1` (stereo not drawn), the Potency is reported as “inactive”.
With `COc1ccc2[nH]c(=O)c(CN(C3CCCCC3)C(c3nnnn3Cc3ccco3)C(C)C)cc2c1` (stereo not drawn) the Potency was inconclusive: 23.9 µM [inhibitor, partial curve, poor fit].
For `CCOCCc1nnc(NC(=O)C(=O)c2cc(C)n(-c3ccc(C)c(C)c3)c2C)s1`, the Potency was “inactive”.
`Cc1ccc2c(c1)COc1c3ccc(C(=O)NCC4CC4)cc3nn1-2` was tested, and the Potency was active: 5.36 µM.
In the case of `COc1cc(O)c(C(CC(=O)N2CCOCC2)c2cc(OC)c(OC)c(OC)c2)c(OC)c1` (stereo not drawn), the Potency is reported as “inactive”.
For `CCCc1ccc(OCc2ccc(C(=O)N3CCSCC3)o2)cc1`, the Potency was active: 21.3 µM.
`COc1ccc(N2CCN(C(=O)c3cc4c(=O)oc5ccc(C)cc5c4s3)CC2)cc1` was tested, and the Potency was “inactive”.
`O=C(Nc1ccc2ccccc2c1)c1cccc([N+](=O)[O-])c1` was tested, and the Potency was active: 12 µM.
`CCN(CC)C(=O)CSc1nc2c(sc(=S)n2-c2ccccc2)c(=O)[nH]1` was tested, and the Potency was inconclusive: 26.9 µM [inhibitor, single point].
In the case of `CC(=O)c1sc(N/N=C/c2cccc([N+](=O)[O-])c2)nc1C`, the Potency is reported as inconclusive: 2.69 µM [inhibitor, partial curve, poor fit].
`CCCCNC(=S)NNC(=O)c1cc(-c2ccncc2)nc2ccccc12` was tested, and the Potency was active: 9.53 µM.
With `Nc1ccccc1-c1nnc(SCc2ccccc2F)[nH]c1=O` the Potency was inconclusive: 30.1 µM [inhibitor, partial curve, poor fit].
With `CCCN(CC(=O)Nc1cc(Cl)ccc1Cl)C(=O)c1ccccc1SCC(=O)N1CCCC1` the Potency was “inactive”.
`CCOC(=O)c1cc(CC)sc1NC(=O)CC1Sc2ccc(C(F)(F)F)cc2NC1=O` (stereo not drawn) was tested, and the Potency was “inactive”.
With `Cc1ccc(NN2C(=O)C=C(c3ccccc3)C2=O)cc1` the Potency was inconclusive: 26.9 µM [inhibitor, partial curve, poor fit].
In the case of `O=C(NCc1ccccn1)C12CC3CC(CC(C3)C1)C2`, the Potency is reported as “inactive”.
In the case of `Cn1cccc/c1=N\c1cccc[n+]1C`, the Potency is reported as “inactive”.
In the case of `CC(C)OC(=O)CSc1nnc(SCc2cccc3ccccc23)s1`, the Potency is reported as inconclusive: 37.9 µM [inhibitor, partial curve, poor fit].
